# Measured values from paper PMC4336329 (PLoS ONE, 2015).
# The campaign covered roughly 310,000 compounds. About 14,000 (4.5%) showed an effect of 50% or more. Effects have a minus sign here. The list shows a part of the results.
# Biological target: human ether-à-go-go-related gene (hERG) potassium channel (human, UniProt Q12809)
# Assay: primary screen, population patch clamp on CHO cells stably expressing hERG
# 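Note: peak tail current of the secondary pulse compared with the same well before compound.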
# Sequence of human ether-à-go-go-related gene (hERG) potassium channel (Q12809 whole entry, looked up): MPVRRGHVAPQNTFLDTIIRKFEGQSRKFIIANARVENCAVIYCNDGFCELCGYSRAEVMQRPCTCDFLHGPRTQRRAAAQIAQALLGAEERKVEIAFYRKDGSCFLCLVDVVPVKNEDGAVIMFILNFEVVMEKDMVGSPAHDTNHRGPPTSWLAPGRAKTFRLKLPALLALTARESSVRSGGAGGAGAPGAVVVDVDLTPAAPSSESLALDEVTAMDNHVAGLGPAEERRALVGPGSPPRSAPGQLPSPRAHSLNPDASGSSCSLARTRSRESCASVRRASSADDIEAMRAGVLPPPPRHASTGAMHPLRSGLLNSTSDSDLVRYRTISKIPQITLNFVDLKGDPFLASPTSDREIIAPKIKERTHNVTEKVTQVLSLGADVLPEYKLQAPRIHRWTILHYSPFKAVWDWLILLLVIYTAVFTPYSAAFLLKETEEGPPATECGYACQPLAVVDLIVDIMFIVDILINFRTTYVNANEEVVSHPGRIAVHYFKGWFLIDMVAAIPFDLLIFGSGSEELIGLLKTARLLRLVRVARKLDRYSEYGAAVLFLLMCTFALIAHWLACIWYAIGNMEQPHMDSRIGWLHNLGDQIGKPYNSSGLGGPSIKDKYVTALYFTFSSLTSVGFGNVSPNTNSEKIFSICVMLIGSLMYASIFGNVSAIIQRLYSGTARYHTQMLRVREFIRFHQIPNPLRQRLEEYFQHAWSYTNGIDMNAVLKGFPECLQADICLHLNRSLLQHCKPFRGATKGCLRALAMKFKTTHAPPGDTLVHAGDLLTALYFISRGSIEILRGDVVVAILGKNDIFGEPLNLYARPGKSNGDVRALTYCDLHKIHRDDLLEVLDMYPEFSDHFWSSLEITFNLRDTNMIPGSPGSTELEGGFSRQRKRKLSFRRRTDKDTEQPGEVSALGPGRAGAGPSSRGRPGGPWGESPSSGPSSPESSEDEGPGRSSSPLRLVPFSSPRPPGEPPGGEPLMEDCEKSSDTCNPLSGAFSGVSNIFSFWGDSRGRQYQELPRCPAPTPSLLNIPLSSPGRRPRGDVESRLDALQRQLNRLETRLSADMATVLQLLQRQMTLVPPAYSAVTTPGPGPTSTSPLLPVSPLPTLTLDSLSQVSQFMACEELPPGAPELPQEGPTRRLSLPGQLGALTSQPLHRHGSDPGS
row,SMILES,"hERG current change (%, negative = inhibition) at 10uM [%]"
1,Cc1cc(NC(=O)CS(=O)(=O)c2c[nH]c3ccccc23)no1,4.1
2,CN(C)C(C(=O)NC1CCCCC1)c1ccc(Cl)cc1 (centres unmarked),4.27
3,COCC(C)NCc1ccccc1C.O=C(O)C(=O)O (centres unmarked),-1.67
4,CN(CC(=O)Nc1cccc(F)c1)C(=O)c1cccnc1Sc1ccccc1,-26.8
5,Cn1c2c(c(=O)n(C)c1=O)C(C(F)(F)F)(C(F)(F)F)N=C(C1CCCCC1)N2,-16.8
6,CCCCSCCCNC(=S)Nc1ccccc1C,5.08
7,COc1cc(Cc2nccc3cc(OC)c(OC)cc23)c(NC(C)=O)cc1OC,22.5
8,COc1ccc(CC(=S)N2CCOCC2)cc1OC,23.9
9,N#Cc1ccccc1OCC(=O)NCCNC(=O)COc1ccccc1C#N,-10.1
10,Cn1c(=O)cc(OCCCC(=O)NC2CCCC2)c2ccccc21,-13.8
11,Cc1cc(NC(=O)C(C)C)ncc1NC(=O)c1ccccn1,4.15
12,CCN(CC)C(=O)c1nn(Cc2ccccc2)c(=O)c2ccccc12,-23.4
13,Fc1ccc2[nH]c3c(N4CCN(C5CCCCC5)CC4)ncnc3c2c1,-46.7
14,O=S(=O)(Cc1ccc(Cl)cc1)NCC1CCCO1 (centres unmarked),-6.17
15,NS(=O)(=O)c1ccc(NS(=O)(=O)c2cccs2)cc1,21.5
16,CCNc1ccc(C(=O)OCC(=O)N2CCCC2)cc1[N+](=O)[O-],-18.2
17,CCOc1ccc(CNC(=O)c2ccc(Sc3ccc(Cl)cc3)c(NC(C)=O)c2)cc1,-8.57
18,CCN1CCN(C(=O)c2ccc(C(F)(F)F)cc2)CC1,-15
19,CC(=O)N1CCN(S(=O)(=O)c2cccc(C(=O)Nc3ccc(F)c(F)c3)c2)CC1,-46.5
20,CC(=O)Nc1ccc(C(=O)OCc2ccc(F)cc2)cc1,-10.9
21,O=C(NC(=S)Nc1ccccc1C(F)(F)F)c1ccccc1F,4.2
22,O=C(O)C(=O)O.c1ccc(CCNC2CCCCCC2)cc1,-4.67

row,SMILES,"hERG current change (%, negative = inhibition) at 10uM [%]"
1,COc1ccc2cc(S(=O)(=O)n3cnc(C)c3)ccc2c1,25.8
2,COc1ccc(C)cc1S(=O)(=O)N1CCCC(C(=O)N2CCOCC2)C1 (centres unmarked),16.3
3,CCOC(=O)C1CCN(c2c(NCCCN(C)C3CCCCC3)c(=O)c2=O)CC1,-6.06
4,O=S(=O)(c1ccccc1)c1nc(-c2ccco2)oc1NCc1ccccc1,-4.93
5,CC(=O)N(CCCc1ccc(C(C)(C)C)cc1)CCCN(C)C,-47.4
6,Nn1c(SCC(=O)NCCc2ccc(F)cc2)nnc1C1CCCCC1,-3.5
7,O=C(NNC(=O)c1cc(-c2ccncc2)nc2ccccc12)c1cccc(Cl)c1,-9.55
8,Clc1ccc(N=NN2CCOCC2)cc1,3.02
9,CCCCn1c(N)c(N(CC(C)C)C(=O)C2=NN(c3ccccc3)C(=O)CC2)c(=O)[nH]c1=O,10.4
10,COc1cc2cc(CN(CCc3ccccc3C)C(=S)NCCCN(C)C)c(=O)[nH]c2cc1OC,-20.2
11,C(=N\n1cnnc1)/c1cccc2ccccc12,7.94
12,O=C(CN1CCN(c2ccc(O)cc2)CC1)NCC(=O)Nc1ccc(F)c(F)c1F,-40.3
13,O=C(CN1C(=O)COc2ccccc21)N1CCN(c2ccccc2F)CC1,-7.46
14,O=S(=O)(Nc1nc2c(s1)CCCC2)c1ccc(Br)cc1,7.76
15,COCCn1cnnc1SCC(=O)Nc1cc(OC)c([N+](=O)[O-])cc1C,-2.6
16,O=C(Nc1ccc(C(=O)N2CCOCC2)cc1)c1ccc([N+](=O)[O-])cc1,-18.7
17,Cc1nn(CC(=O)NCCCN2CC(C)CC(C)C2)c(=O)c2cccn12 (centres unmarked),12.9
18,Cc1ccc(-c2cc(C(=O)N/N=C/c3cccnc3)c3ccccc3n2)cc1C,5.8
19,CC(=O)NC(N1CCCCC1)C(F)(F)C(F)(F)C(F)(F)C(F)F (centres unmarked),-2.84
20,O=C1CC2(CCN(C(=O)c3ccc([N+](=O)[O-])cc3)CC2)Oc2ccccc21,-87.9
21,CCN(CC(=O)Nc1c(F)cccc1F)C(=O)C1CC(=O)N(CCc2ccccc2)C1 (centres unmarked),-10.5
22,COc1cccc(CNC(=O)CCS(=O)(=O)c2ccccc2Cl)c1,11.2

row,SMILES,"hERG current change (%, negative = inhibition) at 10uM [%]"
1,Cc1cc2nc(CCN3CCOCC3)n(S(=O)(=O)c3ccc(C(C)(C)C)cc3)c2cc1C,-3.7
2,Cc1ccc2oc(=O)n(CCCOc3ccccc3C)c2c1,6.39
3,COc1ccc(C(=O)COC(=O)c2ccn(C)n2)cc1,-14.5
4,COc1cc(-c2nc3ccccc3nc2-c2ccc(O)c(OC)c2)ccc1O,-10.8
5,COc1ccccc1N1CCN(S(=O)(=O)c2ccc3nc(-c4ccccc4)[nH]c3c2)CC1,-17.6
6,Brc1ccccc1-c1nnc2sc(Cc3ccccc3)nn12,-14.2
7,COc1ccc(NC(=O)c2nnn(CC(=O)Nc3ccccc3OC)c2N)c(OC)c1,0.272
8,CCNC(=O)Cc1ccc(S(=O)(=O)N2CCOCC2)s1,1.81
9,COc1ccccc1NS(=O)(=O)c1cc(NC(=S)NCC2CCCO2)ccc1C (centres unmarked),14.4
10,CC(C)Oc1ccc(C(=O)NC2(C(F)(F)F)NC(=O)N(CCCc3ccccc3)C2=O)cc1 (centres unmarked),-14.6
11,CN(CC(=O)NC(c1ccccc1)c1ccccc1)Cc1nc2ccccc2c(=O)[nH]1,-37
12,O=C(Nc1ccccc1OC(F)F)c1ccc(S(=O)(=O)N2CCOCC2)cc1,13.3
13,Cc1ccccc1OCC(=O)OCC(=O)c1c[nH]c2ccccc12,12.3
14,COc1ccc2cc3cc(C(=O)NCc4cccnc4)oc3nc2c1,-1.38
15,OCc1nc2ccccc2n1CCc1ccccc1,11.5
16,CCc1cccc(NC(=O)CCNS(=O)(=O)c2ccc3[nH]c(=O)oc3c2)c1,17.4
17,O=C(COc1ccccc1)OCc1cc2ccccc2[nH]c1=O,-4.79
18,COc1cc(C(C(=O)NC2CCCCC2)N(C(=O)Cc2c[nH]c3ccccc23)c2ccc(C)cc2)cc(OC)c1OC (centres unmarked),-0.359
19,COc1ccc(-c2ccc(NS(=O)(=O)c3cccc([N+](=O)[O-])c3)cc2)nn1,3.99
20,NS(=O)(=O)c1ccc(CCNC2CC(=O)N(CCc3ccccc3)C2=O)cc1 (centres unmarked),-4.14
21,CCOc1ccc(-n2ccc(=O)c(C(=O)O)n2)cc1,-1.15
22,CCCN(CC(=O)Nc1ccccc1C)C(=O)c1ccc(C)c(S(=O)(=O)N2CCCCC2)c1,-11.3

row,SMILES,"hERG current change (%, negative = inhibition) at 10uM [%]"
1,COc1ccc(-c2oc3ncnc(N)c3c2-c2ccccc2)cc1,6.52
2,COc1ccc(C(=O)NC(=S)Nc2ccc3[nH]c(=O)[nH]c3c2)cc1,15.5
3,Cc1cccc(CNc2ncnc3ccc(-c4ccoc4)cc23)c1,-12.4
4,CCCn1nnc(NC(=O)c2cccc(OCC)c2)n1,-4.78
5,c1ccc(Cn2ncc3c(N4CCOCC4)ncnc32)cc1,-2.77
6,N#Cc1ccc(C23CC4(C2)[C@H](CN(P(=O)(c2ccccc2)c2ccccc2)[C@@H]4c2ccccc2)C3c2ccc(Cl)nc2)cc1 (some centres unmarked),-8
7,COc1cccc(OCC(=O)N(Cc2nc(-c3ccc(Cl)cc3)no2)C(C)C)c1,-13.7
8,O=C(CSc1nc(-c2ccccc2)c(-c2ccccc2)o1)Nc1nncs1,4.9
9,O=P1(NCCCn2cc[n+](Cc3nc4ccccc4[nH]3)c2)C=C(c2ccccc2)OC(c2ccccc2)=C1.[Cl-],-63
10,CCNC(=O)CN(c1ccc(OC)c(OC)c1)S(=O)(=O)c1ccccc1,6.54
11,O=S(=O)(NCCNc1nccc(C(F)(F)F)n1)c1ccccc1,-4.14
12,COc1ccc(N2CCN(C(=O)c3ccccc3NC(=O)c3ccccc3)CC2)cc1,-5.15
13,CCOc1ccc(C(=O)Nc2cccc(-c3ccc(N4CCOCC4)nn3)c2)cc1OCC,0.747
14,CCCOc1cc(N)ccc1C(=O)OCCN(CC)CC.Cl,-18.9
15,Cc1ccnc(NC(=O)c2cccc(NC(=O)CC3SC(N4CCCCC4)=NC3=O)c2)c1 (centres unmarked),-23.6
16,CCOC(=O)C(NC(=O)CC)(Nc1cc(C)on1)C(F)(F)F (centres unmarked),-4.59
17,CN(C)S(=O)(=O)c1ccc(Cl)c(NC(=O)COC(=O)CN2C(=O)NC(C)(C)C2=O)c1,1.87
18,O=C(NCc1ccccc1C(F)(F)F)C1CC(c2cc(C(F)(F)F)cc(C(F)(F)F)c2)=NO1 (centres unmarked),12.9
19,O=C1C(=O)N(CCN2CCOCC2)C(c2ccccn2)/C1=C(/O)c1ccccc1 (centres unmarked),-1.23
20,CCCCC(=O)Nc1ccc(C(=O)NNC(=O)c2ccco2)cc1,11.2
